Laboratory results reported in article PMC12751014, “Non-Catalytic Inhibitors of the p38/MK2 Interface: Repurposing Approved Drugs to Target Neuroinflammation in Alzheimer’s Disease” (Journal of Medicinal Chemistry, 2025).
No constants are given. Whether binding was seen depends on the method and setting. In cells and extracts the contact can be indirect. Some binding calls cover weakened binding; strength is not graded here. For part of these data: Sequences can lack the tags named with a protein.

Chains of the proteins cited; added tags and fusions are not shown.
UniProt Q15759: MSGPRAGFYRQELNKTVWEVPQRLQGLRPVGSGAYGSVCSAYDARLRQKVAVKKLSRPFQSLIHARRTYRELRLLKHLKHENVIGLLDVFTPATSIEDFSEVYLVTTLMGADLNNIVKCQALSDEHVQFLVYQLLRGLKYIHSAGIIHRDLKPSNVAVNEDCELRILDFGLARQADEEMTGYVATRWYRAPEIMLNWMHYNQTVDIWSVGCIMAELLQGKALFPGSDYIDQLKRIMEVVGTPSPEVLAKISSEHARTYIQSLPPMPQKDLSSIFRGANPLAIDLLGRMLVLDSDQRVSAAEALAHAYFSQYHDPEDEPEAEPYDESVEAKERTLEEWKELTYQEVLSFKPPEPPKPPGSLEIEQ
UniProt P49137: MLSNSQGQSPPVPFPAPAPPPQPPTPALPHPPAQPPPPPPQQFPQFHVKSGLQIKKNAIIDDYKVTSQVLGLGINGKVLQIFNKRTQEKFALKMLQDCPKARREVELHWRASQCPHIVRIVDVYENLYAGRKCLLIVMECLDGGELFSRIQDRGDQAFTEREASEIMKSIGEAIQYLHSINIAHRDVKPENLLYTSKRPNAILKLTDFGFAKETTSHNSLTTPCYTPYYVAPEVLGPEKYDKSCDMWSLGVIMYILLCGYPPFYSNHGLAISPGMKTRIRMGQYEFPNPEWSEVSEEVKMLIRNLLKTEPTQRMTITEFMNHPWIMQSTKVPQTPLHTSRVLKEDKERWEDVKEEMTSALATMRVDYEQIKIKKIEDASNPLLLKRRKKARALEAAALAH

How the values were obtained:
[1] = target: T1, Venus-Flag (VF)-tagged p38δ expressed in HEK293T cells (UniProt O15264); test: co-IP; Flag-immunoprecipitation (anti-Flag M2 magnetic beads) from lysates of HEK293T cells cotransfected with GST-MK2 and VF-p38 isoforms; 1% NP-40 buffer, 4 °C; Western blot
T1 sequence: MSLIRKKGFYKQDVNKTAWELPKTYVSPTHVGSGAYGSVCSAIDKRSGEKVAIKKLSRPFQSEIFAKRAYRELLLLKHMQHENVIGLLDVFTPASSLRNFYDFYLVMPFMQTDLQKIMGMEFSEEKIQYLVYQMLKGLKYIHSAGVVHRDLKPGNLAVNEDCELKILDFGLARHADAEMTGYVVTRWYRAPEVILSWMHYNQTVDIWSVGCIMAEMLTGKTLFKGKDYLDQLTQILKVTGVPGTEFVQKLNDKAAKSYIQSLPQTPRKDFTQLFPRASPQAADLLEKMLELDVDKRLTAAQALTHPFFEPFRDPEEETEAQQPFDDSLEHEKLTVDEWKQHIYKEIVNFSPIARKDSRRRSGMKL

[2] = target: T2, Venus-Flag (VF)-tagged p38γ expressed in HEK293T cells (UniProt P53778); test: as above
T2 sequence: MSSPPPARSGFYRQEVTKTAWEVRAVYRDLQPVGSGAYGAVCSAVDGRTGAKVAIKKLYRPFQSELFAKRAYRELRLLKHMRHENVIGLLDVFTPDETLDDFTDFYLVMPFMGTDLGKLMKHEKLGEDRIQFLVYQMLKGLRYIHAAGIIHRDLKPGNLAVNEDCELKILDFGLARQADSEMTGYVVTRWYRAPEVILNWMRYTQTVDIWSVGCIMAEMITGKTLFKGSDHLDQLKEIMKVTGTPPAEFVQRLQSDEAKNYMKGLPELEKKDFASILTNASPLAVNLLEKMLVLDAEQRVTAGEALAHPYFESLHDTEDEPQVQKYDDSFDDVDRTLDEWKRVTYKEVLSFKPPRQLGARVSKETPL

[3] = target: Venus-Flag (VF)-tagged p38β expressed in HEK293T cells (UniProt Q15759); test: as above
[4] = target: T1, Venus-Flag (VF)-tagged p38δ expressed in HEK293T cells; test: FRET or BRET; TR-FRET in lysates of HEK293T cells cotransfected with VF-p38 isoforms and GST-MK2; anti-Flag-Tb and anti-GST-d2 antibodies; 20 mM Tris-HCl pH 7.0, 50 mM NaCl, 0.01% NP-40; room temperature; 384- and 1536-well formats
[5] = target: T2, Venus-Flag (VF)-tagged p38γ expressed in HEK293T cells; test: as above
[6] = target: Venus-Flag (VF)-tagged p38β expressed in HEK293T cells (UniProt Q15759); test: as above

Substance: GST-MK2 expressed in HEK293T cells (from UniProt P49137 1-400) (enzyme)
- binding [1]: no binding
- binding [2]: no binding
- binding [3]: binds
- binding [4]: no binding
- binding [5]: no binding
- binding [6]: binds
